{
  "source": "paper PMC9834311",
  "about": "“Changes within the central stalk of E. coli F1Fo ATP synthase observed after addition of ATP” (Communications Biology, 2023)",
  "binders": {"B1": {"name": "E. coli F1Fo ATP synthase subunit c (natural protein)", "chain": "MENLNMDLLYMAAAVMMGLAAIGAAIGIGILGGKFLEGAARQPDLIPLLRTQFFIVMGLVDAIPMIAVGLGLYVMFAVA", "notes": "ATP synthase subunit c, E. coli; subunit of the cysteine-free enzyme (all cysteines to alanine); also called c subunit; c-ring; source: E. coli DK8, purified as part of the F1Fo complex (digitonin extraction, Talon resin, Superose 6 SEC)"}},
  "key": {"[1]": {"molecular_target": "T1, E. coli F1Fo ATP synthase subunit ε (wild type, full length) (E. coli, UniProt P0A6E6 1-139)", "T1 construct": "ATP synthase epsilon chain, E. coli; subunit of the cysteine-free enzyme (all cysteines to alanine); also called ε subunit; WT; source: E. coli DK8, purified as part of the F1Fo complex (digitonin extraction, Talon resin, Superose 6 SEC)", "T1 sequence (looked up)": "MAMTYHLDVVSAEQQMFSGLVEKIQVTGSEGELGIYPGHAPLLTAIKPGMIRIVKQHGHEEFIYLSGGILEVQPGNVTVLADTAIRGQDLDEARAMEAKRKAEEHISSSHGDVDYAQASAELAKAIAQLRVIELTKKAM", "experiment": "cryo-EM structure; detergent-solubilised (digitonin) cysteine-free E. coli F1Fo ATP synthase (WT at 11 μM, εΔCTH2 mutant at 9 μM) with 10 mM MgATP, pH 8.0, 22 °C, 45 s in all until freezing", "conditions": "both partners purified"}, "[2]": {"molecular_target": "the molecule itself", "experiment": "cryo-EM structure; detergent-solubilised (digitonin) cysteine-free E. coli F1Fo ATP synthase (WT at 11 μM, εΔCTH2 mutant at 9 μM) with 10 mM MgATP, pH 8.0, 22 °C, 45 s in all until freezing"}},
  "data": [
    {"binder": "B1", "values": [
      {"measurement": "binding result", "setting": "[1]", "value": "binds"},
      {"measurement": "binding result", "setting": "[2]", "value": "binds"}
    ]}
  ]
}
